# From PubChem BioAssay AID602233 (National Center for Advancing Translational Sciences (NCATS), 2012)
# Hit rate of the full screen: of about 380,000 compounds, about 170 (0.045%) were called active. Inconclusive results, whose numbers are uncertain, are shown with a selection of clear calls. Calls follow the shape of the dose curve; as a rule, active = well fitted inhibition curve with a large enough effect; inconclusive = small, poorly fitted or top-dose-only effect; inactive = no such curve, though single readings can be large or run the other way. Potencies of inconclusive entries are left out as doubtful fits.
# Biological target: Phosphoglycerate kinase, glycosomal (Trypanosoma brucei brucei) (UniProt P07378)
# Assay: qHTS Assay to Find Inhibitors of Phosphoglycerate Kinase; also: nearly all actives have a fitted effect of over 60% in size
# Conditions: PGK/GAPDH coupled, Kinase-Glo luminescence, 60 min; series mostly up to 57.5 µM
# Outline: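 Luminescent ATP detection (Kinase-Glo Plus) follows a 60-minute room-temperature incubation, with wells lacking PGK as controls. Buffer: 100 mM TEA (pH 7.6), 5 mM MgCl2, 0.01% Tween-20. Coupling enzyme GAPDH (100 nM final) supplies unstable 1,3-BPG in-well.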
# Potency is read from the fitted curve at half-maximal effect; tags tell the direction and shape of the fitted curve.
row,SMILES,Potency
1,NS(=O)(=O)c1ccc(N=Nc2c[nH]c(=O)c(O)c2)cc1,"inconclusive [inhibitor, partial curve]"
2,COc1cc(/C=N/Nc2nncn2/N=C/c2ccc(O)c(OC)c2)ccc1O,"inconclusive [inhibitor, partial curve]"
3,O=C(O)c1cccc(Cn2c(Cl)c(/C=N/NC(=O)c3cc4ccccc4cc3O)sc2=O)c1,"inconclusive [inhibitor, partial curve, poor fit]"
4,Oc1cncc(-c2cccnc2)c1,inactive
5,O=C(N/N=C1/C(=O)c2cccc3cccc1c23)c1ccc(Cl)cc1,"inconclusive [inhibitor, partial curve, poor fit]"
6,Cc1cc(Cl)c(C)c(S(=O)(=O)N2CCN(C(=O)C3CCCO3)CC2)c1Cl (stereo unspecified),inactive
7,CC(=O)NS(=O)(=O)c1ccc(NC(=O)c2ccc(NC(=O)c3cccs3)cc2)cc1,"inconclusive [inhibitor, partial curve, poor fit]"
8,CC(/C=C/c1ccco1)=N/NC(=O)Cc1cccs1,inactive
9,Cc1cc(NC(=S)N(CCN2CCCCC2)Cc2ccco2)ccc1Cl,"inconclusive [inhibitor, partial curve, poor fit]"
10,Nc1ccc(-c2c3ccc(=O)cc-3oc3cc(O)ccc23)cc1C(=O)O,"inconclusive [inhibitor, partial curve, poor fit]"
11,Cc1cc(NC(=O)CSc2nccn2-c2cccc(Cl)c2)no1,inactive
12,Cc1cc([N+](=O)[O-])c2[nH]c(C(=O)N/N=C/c3ccccc3C(=O)O)c(-c3ccccc3)c2c1,"inconclusive [inhibitor, single point]"
13,CCc1ccc([C@@H]2CC=C(C(=O)O)[C@H](c3ccc(C(C)(C)C)cc3)N2S(=O)(=O)c2ccc(C)cc2)cc1,"inconclusive [inhibitor, single point]"
14,O=C(O)C1CCCCC1C(=O)Nc1cccc(Br)c1 (stereo unspecified),"inconclusive [inhibitor, single point]"
15,Cc1ccccc1NC(=O)CN1C(=O)N/C(=C\c2cccn2-c2cccc(C(=O)O)c2)C1=O,"inconclusive [inhibitor, partial curve, poor fit]"
16,COc1ccc2oc(C(=O)c3ccccc3)c(NC(=O)CN3CCN(C)CC3)c2c1,inactive
17,C#CCN1C(=O)S/C(=C\c2ccc(-c3ccc(C(=O)O)cc3C)o2)C1=O,"inconclusive [inhibitor, partial curve, poor fit]"
18,Oc1ccc(/C=N/N=C/c2ccc(O)c(O)c2)cc1O,"inconclusive [inhibitor, full curve, poor fit]"
19,COc1ccc(C(=O)Nc2ccccc2C(=O)N/N=C/c2ccc(O)c(OC)c2)cc1,"inconclusive [inhibitor, partial curve]"
20,CCN(C(=O)COC(=O)/C=C/c1ccco1)C1CCCCC1,"inconclusive [inhibitor, partial curve, poor fit]"
21,Oc1ccc2ccccc2c1C=Nc1ccc(N2CCOCC2)cc1,inactive

row,SMILES,Potency
1,O=C1C2C3C=CC(CC3)C2C(=O)N1c1nccs1 (stereo unspecified),"inconclusive [inhibitor, partial curve]"
2,CCCc1[nH]nc2c1C(c1ccsc1)C(C#N)=C(N)O2 (stereo unspecified),inactive
3,CCN1C(c2ccccc2)=C(c2ccccc2)S/C1=C\C=C1/SC(=S)N(C)C1=O,"inconclusive [inhibitor, partial curve, poor fit]"
4,COc1ccc(-c2nc3c(c(SCC(=O)Nc4ccc(C(=O)O)cc4)n2)Cc2ccccc2O3)cc1,"inconclusive [inhibitor, full curve, poor fit]"
5,O=C(NCC1CC1)c1ccc2c3n(nc2c1)-c1ccccc1CO3,"inconclusive [inhibitor, partial curve, poor fit]"
6,CCN(CC)C(=O)CSc1nc2ccccc2c(=O)n1CC,inactive
7,O=C(c1ccc(=O)oc1)N1CCCc2ccccc21,"inconclusive [inhibitor, single point]"
8,COC1=C(Br)C(=O)c2ncccc2C1=O,"inconclusive [inhibitor, partial curve]"
9,COc1cc(S(=O)(=O)N2CCCCC2)ccc1NC(=O)Cc1ccccc1,"inconclusive [inhibitor, full curve, poor fit]"
10,O=C(COC(=O)c1ccccc1Oc1ccccc1)NCc1ccco1,"inconclusive [inhibitor, single point]"
11,O=C(O)COc1ccccc1/C=N/NC(=O)COc1ccc(-c2ccccc2)cc1,"inconclusive [inhibitor, single point]"
12,O=C(NCc1ccccc1)c1ccc2nc(-c3ccco3)c(-c3ccco3)nc2c1,"inconclusive [inhibitor, partial curve]"
13,COc1cccc(C(C[N+](=O)[O-])c2c(C)[nH]n(-c3ccccc3)c2=O)c1 (stereo unspecified),inactive
14,CCOC(=O)N(O)c1ccc(C=Cc2ccccc2)cc1,active: 28.2 µM
15,O=C(O)C1CN(c2nc(Cl)ccc2[N+](=O)[O-])C1,"inconclusive [inhibitor, partial curve, poor fit]"
16,C=CCNc1nnc(Sc2ncccc2[N+](=O)[O-])s1,inactive
17,Cn1cccc1/C=C1\CCc2ccccc2C1=O,"inconclusive [inhibitor, single point]"
18,CCC(/C=C1\Sc2ccc(OC)cc2N1CCO)=C\c1sc2ccc(OC)cc2[n+]1CCO,"inconclusive [inhibitor, partial curve]"
19,CCOC(=O)C1=C(C)N=c2s/c(=C\c3ccc(OCC(=O)O)cc3)c(=O)n2C1c1ccccc1 (stereo unspecified),"inconclusive [inhibitor, partial curve, poor fit]"
20,Cc1ccc2c(c1C)NC(C(=O)O)C1CC=CC21 (stereo unspecified),"inconclusive [inhibitor, partial curve, poor fit]"
